The structures appear in SMILES notation. Among all 310,000 compounds or so, about 2,200 (0.71%) showed an effect of 50% or more. The effect is printed as a negative number. The list shows a part of the results.

Chain of human ether-à-go-go-related gene (hERG) potassium channel (Q12809 whole entry, looked up): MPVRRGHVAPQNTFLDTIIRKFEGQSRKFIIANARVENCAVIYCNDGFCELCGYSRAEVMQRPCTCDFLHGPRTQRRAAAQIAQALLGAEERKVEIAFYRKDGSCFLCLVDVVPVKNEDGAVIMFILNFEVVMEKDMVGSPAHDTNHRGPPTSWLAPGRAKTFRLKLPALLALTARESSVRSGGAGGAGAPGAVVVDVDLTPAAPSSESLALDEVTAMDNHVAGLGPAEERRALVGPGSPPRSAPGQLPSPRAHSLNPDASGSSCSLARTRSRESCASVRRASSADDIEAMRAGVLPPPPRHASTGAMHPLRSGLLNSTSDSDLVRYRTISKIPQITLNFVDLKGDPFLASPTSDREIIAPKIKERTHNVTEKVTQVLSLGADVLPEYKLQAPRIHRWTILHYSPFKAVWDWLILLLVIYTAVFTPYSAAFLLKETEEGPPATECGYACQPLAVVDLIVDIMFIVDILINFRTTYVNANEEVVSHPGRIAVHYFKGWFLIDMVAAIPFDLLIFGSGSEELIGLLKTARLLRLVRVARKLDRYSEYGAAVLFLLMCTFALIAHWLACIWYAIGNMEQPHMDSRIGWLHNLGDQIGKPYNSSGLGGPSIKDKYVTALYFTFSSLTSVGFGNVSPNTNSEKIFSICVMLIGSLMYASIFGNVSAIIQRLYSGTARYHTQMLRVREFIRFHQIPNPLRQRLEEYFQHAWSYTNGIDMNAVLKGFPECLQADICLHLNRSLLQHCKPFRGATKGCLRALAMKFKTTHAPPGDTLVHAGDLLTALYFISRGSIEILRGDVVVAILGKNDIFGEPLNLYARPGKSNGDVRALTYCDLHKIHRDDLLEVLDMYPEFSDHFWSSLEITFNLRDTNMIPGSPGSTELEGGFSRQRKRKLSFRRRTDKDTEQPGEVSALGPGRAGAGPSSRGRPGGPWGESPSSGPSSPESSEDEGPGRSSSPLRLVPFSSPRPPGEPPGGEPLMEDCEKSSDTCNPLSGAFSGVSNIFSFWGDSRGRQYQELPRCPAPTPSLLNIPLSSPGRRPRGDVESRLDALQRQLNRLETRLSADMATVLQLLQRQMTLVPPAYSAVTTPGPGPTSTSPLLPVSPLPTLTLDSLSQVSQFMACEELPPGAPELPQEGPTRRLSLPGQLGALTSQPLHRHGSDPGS

This assay addresses human ether-à-go-go-related gene (hERG) potassium channel (human, UniProt Q12809). Nature of the assay: primary screen, population patch clamp on CHO cells stably expressing hERG.
`Cc1cc(=O)n2nc(N3CCC(C(=O)NCc4ccc(F)cc4)CC3)sc2n1`: the “hERG current change (%, negative = inhibition) at 1uM” value turned out to be 0.746%.
With `CC1CCN(c2ccc([N+](=O)[O-])c(SCCO)c2)CC1` the figure was 8.74%; with `CCN(CC(=O)Nc1c(F)cccc1F)C(=O)c1ccc2ncsc2c1`, 12.3%; with `O=C(NC1CCCCCCC1)c1ccc(Br)o1`, 0.286%.
`N#Cc1ccc(CC(C(=O)O)N2Cc3ccccc3C2=O)cc1` (stereo not drawn): the “hERG current change (%, negative = inhibition) at 1uM” value stood at 17.3%.
As for `Cc1c(Cl)cccc1NC(=O)c1cccc(NC(=O)CCC(=O)O)c1`, the “hERG current change (%, negative = inhibition) at 1uM” value was -0.51%.
In the case of `Fc1ccc(NCc2ccccc2F)cc1Cl`, the “hERG current change (%, negative = inhibition) at 1uM” value is given as -76.5%.
Turning to `CCCn1cc(S(=O)(=O)CC(=O)N2CCc3ccccc32)c2ccccc21`, the “hERG current change (%, negative = inhibition) at 1uM” value came out at 5.83%.
For the compound `COC(=O)[C@@](C)(O)C1(C(=O)SC(C)(C)C)CC1`, the “hERG current change (%, negative = inhibition) at 1uM” value is reported as 8.34%.
For `COc1cccc(CNC(=O)C2CCN(c3ncnc4c3nc3n4CCCCC3)CC2)c1`, the “hERG current change (%, negative = inhibition) at 1uM” value amounted to 15.2%.
Take `CC(C)=NN1C(c2nonc2N)=NOC1(C)C`: the “hERG current change (%, negative = inhibition) at 1uM” value amounted to 6.43%.
To `O=C1C(=O)N(CCc2c[nH]c3ccccc23)C(c2cccnc2)/C1=C(/O)c1ccccc1` (stereo not drawn) belongs 8.84%; to `CC1(C)CC2CC(C)(CN2C(=O)c2ccccc2)C1` (stereo not drawn), 8.21%; to `Cc1cc(NC(=O)c2noc3c2CCc2ccccc2-3)n(-c2ccccc2)n1`, 10.4%.
For `CC(C)c1c(C(=O)N/N=C/c2cccnc2)nnn1-c1nonc1N`, the “hERG current change (%, negative = inhibition) at 1uM” value came out at 13.7%.
To `O=C(CCCc1ccccc1)NCc1ccccn1` belongs 9.55%; to `CCCCOc1ccc(C(=O)OCC(=O)NC2CCCC2)cc1`, 7.23%; to `CS(=O)(=O)Nc1ccc2c(c1)ncn2CCc1ccccc1`, -5.57%.
With `CCn1cc(CN(C)C(=O)/C=C/c2ccc([N+](=O)[O-])cc2)c(C)n1` the figure was -35.3%; with `CC1CN(C(=O)/C=C/c2ccccc2[N+](=O)[O-])CC(C)O1` (stereo not drawn), 6.46%; with `COc1cccc(NC(=S)NNC(=O)c2c([N+](=O)[O-])c(C)nn2C)c1`, 8.54%.
Turning to `COc1ccc(-c2[nH]ncc2/C=C(/C#N)C(=O)NC2CCCCCC2)cc1`, the “hERG current change (%, negative = inhibition) at 1uM” value is 5.36%.
Regarding `NS(=O)(=O)c1cccc(NC(=O)CCSc2ccccc2Cl)c1`, the “hERG current change (%, negative = inhibition) at 1uM” value worked out at 5.04%.
Regarding `CC(=O)c1ccc(NC(=O)C(C)Nc2ccc(Cl)cc2)cc1` (stereo not drawn), the “hERG current change (%, negative = inhibition) at 1uM” value turned out to be 7.44%.
As to `Cc1c(Cl)cccc1NC(=O)CN(C1CCCCC1)S(C)(=O)=O`, the “hERG current change (%, negative = inhibition) at 1uM” value was found to be 11.2%.
For the compound `Cc1c(N)cccc1[N+](=O)[O-]`, the “hERG current change (%, negative = inhibition) at 1uM” value is listed as 19.9%.
Take `Cc1ccc2c(c1)C1C=CCC1C(C(=O)O)N2` (stereo not drawn): the “hERG current change (%, negative = inhibition) at 1uM” value came to 12.1%.
Take `CCCNC(=O)CN(Cc1ccccc1F)S(=O)(=O)c1ccc(C)cc1`: the “hERG current change (%, negative = inhibition) at 1uM” value was 5.85%.
With `COc1ccc(/C=C2\SC(=Nc3ccccc3OC)NC2=O)cc1` the figure was 11.8%.
Consider `COc1ccc(Cn2cnc3c4cc(F)ccc4n(C)c3c2=O)cc1`, for which the “hERG current change (%, negative = inhibition) at 1uM” value came out at 1.01%.
To `Cc1c(CC(=O)NCC(=O)NCC(=O)O)c(=O)oc2cc3oc4c(c3cc12)CCCC4` belongs 9.76%.
With `NC(=O)C1CC(O)CN1c1nc(CN2CCOCC2)nc2scc(-c3ccccc3)c12` (stereo not drawn), the “hERG current change (%, negative = inhibition) at 1uM” value was found to be 0.0341%.
Consider `CS(=O)(=O)C1=NN2C(=N)/C(=C\c3ccc(OC(=O)c4ccco4)cc3)C(=O)N=C2S1`, for which the “hERG current change (%, negative = inhibition) at 1uM” value turned out to be 12.7%.
To `O=C(Nc1cc(S(=O)(=O)N2CCCC2)ccc1OCC(F)(F)F)c1ccc(F)cc1` belongs 5.41%; to `CCOCC(=O)Nc1nc2ccc(OCC)cc2s1`, 15%; to `N=C1SCC(=O)N1c1nc(-c2ccccc2)cs1`, 8.19%.
As for `Cc1sc2ncnc(NCCc3ccc(S(N)(=O)=O)cc3)c2c1C`, the “hERG current change (%, negative = inhibition) at 1uM” value came out at 15.9%.
As for `CC(C)OC(=O)CC12CN3CC(CC(=O)OC(C)C)(CN(C1)C(=O)c1ccccc1C3=O)C2=O`, the “hERG current change (%, negative = inhibition) at 1uM” value is 8.55%.
As to `Cc1ccc(N2CC(C(=O)Nc3ccc(S(=O)(=O)Nc4ncccn4)cc3)CC2=O)cc1C` (stereo not drawn), the “hERG current change (%, negative = inhibition) at 1uM” value was 18.1%.
For `O=C(NCC1(c2ccccc2)CCCC1)C1(c2ccccc2)CCCC1`, the “hERG current change (%, negative = inhibition) at 1uM” value is -13.3%.
With `COc1ccc(NC(=O)C(C)Oc2ccc(/C(C)=N\O)cc2)cc1` (stereo not drawn) the figure was 15%; with `CCCC(=O)N(Cc1cc2cccc(C)c2[nH]c1=O)c1ccccc1OC`, 15.3%.
To `CSc1ccc(Cl)c(C(=O)N2CCN(c3ncccn3)CC2)c1` belongs -5.77%; to `COc1cccc(C(=O)NOCc2ccc(C)cc2)c1OC`, -2.52%.
In the case of `CCN(CC)S(=O)(=O)c1ccc(C(=O)NCCCN=C2NS(=O)(=O)c3ccccc32)cc1`, the “hERG current change (%, negative = inhibition) at 1uM” value came out at 2.62%.
`O=c1c2ccccc2ncn1-c1ccccc1C(F)(F)F`: the “hERG current change (%, negative = inhibition) at 1uM” value was determined as 9.54%.
For the compound `Cc1ccc(C(=O)C2CCN(CC(=O)NCc3ccc(F)cc3)CC2)cc1`, the “hERG current change (%, negative = inhibition) at 1uM” value is reported as -17.5%.
With `CCn1c(=O)n(CC)c2cc([N+](=O)[O-])c(N3CCNCC3)cc21`, the “hERG current change (%, negative = inhibition) at 1uM” value is on record as 15.2%.
Take `Cc1c(NC(=O)Nc2ccc3c(c2)OCO3)c(=O)n(-c2ccccc2)n1C`: the “hERG current change (%, negative = inhibition) at 1uM” value was -1.51%.
To `CC(C)(C)c1ccc(NC(=O)c2ccc(=O)[nH]n2)cc1` belongs 4.23%; to `COc1cccc(C2C(C(=O)c3cc4cccc(OC)c4o3)=C(O)C(=O)N2c2cc(C)on2)c1OC` (stereo not drawn), 2.78%; to `Cc1ccc(C)c(S(=O)(=O)N2CCN(CC(=O)Nc3ccc4c(c3)OCCO4)CC2)c1`, 6.66%.
Take `Cc1cc(C(F)F)nn1CC(=O)NCc1ccccc1F`: the “hERG current change (%, negative = inhibition) at 1uM” value was 6.99%.
Turning to `C=CCOc1cccc(C2/C(=C(\O)c3ccc4c(c3)OCCO4)C(=O)C(=O)N2CCN2CCOCC2)c1` (stereo not drawn), the “hERG current change (%, negative = inhibition) at 1uM” value was 6.52%.
For `CN(C)CCNCCCOc1ccccc1-c1ccccc1.O=C(O)C(=O)O`, the “hERG current change (%, negative = inhibition) at 1uM” value came out at 4.5%.
Turning to `CCCn1cnc2c(cnn2-c2ccc(F)cc2)c1=O`, the “hERG current change (%, negative = inhibition) at 1uM” value was 5.66%.
To `O=C(Nc1ccc(-c2cn3ccsc3n2)cc1)C1CCCC1` belongs 11.7%.

The record behind these values is paper PMC4336329 (PLoS ONE, 2015).
